# Hit rate of the full screen: of about 45,000 compounds, about 200 (0.44%) were called active. Inconclusive results (about 7%) are left out. The call rests on the fitted dose curve; in most records, active means well fitted activation curve with a large enough effect; inconclusive means small, poorly fitted or top-dose-only effect; inactive means no such curve, though single readings can be large or run the other way. The list shows a part of the results.
# Experiment: qHTS of TDP-43 Inhibitors: NCGC Sytravon Library Screen; further: 0% is about no effect; nearly all actives have a fitted effect of over 55% in size
# Details: yeast TDP-43 toxicity rescue, BacTiter-Glo growth, 24 h; series mostly up to 46.1 µM; growth rescue (activation): at the top concentration
# Procedure, shortened: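 TDP-43-expressing yeast, pregrown in raffinose, seeded at OD600 0.02 in galactose medium with compound for 24 hr at 30 deg C. Growth read by BacTiter-Glo luminescence, so rescue of toxicity appears as activation.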
row,Compound,growth rescue (activation)
1,Cc1ccc(/C=C(\C#N)C(=O)Nc2ccc(Br)cc2)o1,inactive: 11.7%
2,CN1CCC(C)(C(=O)Nc2ccc3c(c2)OCCO3)C1 (stereo not given),inactive: 0.295%
3,O=C(Nc1ccc(Cl)cc1)c1cccc(S(=O)(=O)Nc2ccccn2)c1,inactive: 10.1%
4,CC1CCCC(NC(=O)COC(=O)c2cccc(NS(=O)(=O)/C=C/c3ccccc3)c2)C1C (stereo not given),inactive: 6.31%
5,CSCCC1NC(=O)N(CC(=O)Nc2cccc(S(=O)(=O)N3CCCCCC3)c2)C1=O (stereo not given),inactive: -3.62%
6,O=C(CCNS(=O)(=O)c1cccc(Cl)c1)OCC(=O)N1CCN(C(=O)c2ccco2)CC1,inactive: 12.6%
7,COc1ccc(CNC(=O)COC(=O)/C=C/c2cccs2)cc1,inactive: -6.5%
8,C=CCC1(C#N)C(=S)NC2=C(C(=O)CC(C)(C)C2)C1c1ccc(Br)cc1 (stereo not given),inactive: -0.442%
9,CCOC(=O)CSc1nnc(COc2ccc3ccccc3c2)o1,inactive: 2.6%
10,Cc1cc(C)cc(NC(=O)N2CCCCCCC2)c1,inactive: -14.4%
11,CCCCN(C(=O)CN1CCOCC1)c1c(N)n(CC(C)C)c(=O)[nH]c1=O,inactive: -12.3%
12,COc1ccc(NC(=O)NNC(=O)CCC(=O)Nc2ccccc2Cl)cc1,inactive: 1.54%
13,Cc1cc(C)cc(NC(=S)NCc2ccc(F)cc2)c1,inactive: 4.84%
14,COc1ccc(CC(=S)N2CCOCC2)cc1F,inactive: 31.3%
15,Cn1nccc1C(=O)OCC(=O)Nc1ccccc1,inactive: -1.82%
16,Nc1nc(NS(=O)(=O)c2ccc(Cl)cc2)nn1-c1ccccc1,inactive: 11.4%
17,C=CCNC(=S)/C(=C(\[O-])c1ccc(Cl)cc1)[n+]1ccccc1,inactive: 24.3%
18,CN(C(=O)CCc1nnc(Cc2ccc(-c3ccccc3)cc2)o1)C1CCOCC1,inactive: 4.94%
19,Cc1cc(=O)oc2cc(NC(=O)C(C)N3C(=O)C4CCCCC4C3=O)ccc12 (stereo not given),inactive: 18.4%
20,CC1CN(C(=O)COC(=O)c2cc([N+](=O)[O-])ccc2Cl)CC(C)O1 (stereo not given),inactive: 8.99%
21,CCCCOc1ccc(C2CCC(C(C)=O)C(C)C2)cc1 (stereo not given),inactive: 5.37%
22,CC(CC(=O)O)CC(=O)Nc1cc([N+](=O)[O-])ccc1O (stereo not given),inactive: -5.05%
23,COc1ccc2c(C)cc(SCC(=O)N3CCOCC3)nc2c1,inactive: 43.2%
24,Cc1ccccc1-c1nnc(SCC(=O)N(C)c2ccccc2)o1,inactive: 28.9%
25,COc1cccc(CNC(=O)CCC2CCCN(C(=O)c3ccc(C)nc3)C2)c1 (stereo not given),inactive: 7.47%
26,NS(=O)(=O)c1ccc(CNC(=O)c2cc(-c3ccccc3)nc3ccccc23)cc1,inactive: 20.4%
27,CC(C)c1ccc(S(=O)(=O)c2cnc(=S)[nH]c2N)cc1,inactive: 1.93%
28,CC1CC(C)(C)NC(=S)N1CCC(=O)N1c2ccccc2CC1C (stereo not given),inactive: 9.47%
29,CCc1ccc(NS(=O)(=O)c2ccc3[nH]cc(C(=O)N4CCc5ccccc54)c(=O)c3c2)cc1,inactive: 4.82%
30,CCCN(CCC)C(=O)Cn1c(=O)n(CCCCCC(=O)Nc2ccccc2)c(=O)c2sccc21,inactive: -5.71%

# Reference: PubChem BioAssay AID1347073 (National Center for Advancing Translational Sciences (NCATS), 2019)
